Results reported in the supplement of paper PMC3334620.
The full ranking holds about 33,000 sequences; the median of “E-score (-0.5 to 0.5)” is about -0.032, and the highest 2% start at about 0.36. Some of the results follow.

These sequences were tested against T1, Sko1 (UniProt Q02100) (assay: PBM E-score (8-mer binding enrichment) (E-score (-0.5 to 0.5)); higher = stronger / more preferred TF binding; most listed sequences are background and not binding sites). Conditions: protein concentration: 200 nM; construct: GST-full length.
T1 sequence: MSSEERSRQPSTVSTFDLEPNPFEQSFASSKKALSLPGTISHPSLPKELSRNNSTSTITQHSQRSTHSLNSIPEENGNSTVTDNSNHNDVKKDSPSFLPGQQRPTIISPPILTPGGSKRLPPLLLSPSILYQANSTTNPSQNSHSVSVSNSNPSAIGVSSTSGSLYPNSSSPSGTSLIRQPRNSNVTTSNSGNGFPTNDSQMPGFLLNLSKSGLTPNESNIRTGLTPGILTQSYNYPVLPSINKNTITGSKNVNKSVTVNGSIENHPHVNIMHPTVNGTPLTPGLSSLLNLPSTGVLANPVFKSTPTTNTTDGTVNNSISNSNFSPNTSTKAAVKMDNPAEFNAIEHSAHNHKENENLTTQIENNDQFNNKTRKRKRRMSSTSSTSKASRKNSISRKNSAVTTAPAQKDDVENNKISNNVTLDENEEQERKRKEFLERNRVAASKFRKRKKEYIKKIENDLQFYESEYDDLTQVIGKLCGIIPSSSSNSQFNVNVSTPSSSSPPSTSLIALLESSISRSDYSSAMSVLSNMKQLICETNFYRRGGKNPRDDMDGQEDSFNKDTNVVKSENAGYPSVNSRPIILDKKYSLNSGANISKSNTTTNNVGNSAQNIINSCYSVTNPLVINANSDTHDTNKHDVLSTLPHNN
Summary of the method: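 GST-tagged yeast TFs (full-length or DNA-binding domain) were made by PURExpress in vitro transcription/translation and applied at about 100-200 nM to universal all-10-mer Agilent arrays. The arrays were made double-stranded by primer extension, on fresh or once-stripped slides. Bound protein was detected with fluorescent anti-GST, and scans were normalised with masliner. Each ungapped eight-base word, pooled with its reverse complement, received an E-score (modified Wilcoxon-Mann-Whitney statistic) from the Universal PBM Analysis Suite.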

Sequence | PBM E-score
GGGACCAA | -0.122
CAAACTAA | 0.144
AAGGATTC | -0.233
ACCTTCCC | -0.216
CTAGCACC | -0.0644
AAGTTCAG | 0.102
AAACGCAG | 0.114
GACTGGTA | -0.105
AGCACTTG | -0.253
AGTTAAGA | 0.0298
CGCTGACC | -0.15
GGCGACCC | -0.368
GACCATAC | -0.081
ACGTTGGC | 0.233
CGTATTGC | 0.223
CGGGAATA | -0.111
AGCAGAAC | 0.0202
CTTGGACC | -0.258
GGGGTTAC | -0.019
CGGGCGAC | -0.177
AGTCGTGA | -0.046
CTATGTGC | 0.056
ACTAGAGA | -0.0523
CCGGTCTC | -0.302
AGCATGCG | 0.0664

Sequence | PBM E-score
AGTACTCA | -0.13
GGGGGTTA | -0.319
CGCCGTCC | 0.00089
CCGGGATA | -0.179
GTACCGGA | 0.0372
CTACTATA | 0.0747
ACAAGGAA | -0.141
GCGCGCAA | 0.113
ACAATCCC | -0.132
AAGTTGGT | 0.0333
CAAGTGTA | -0.126
AAGATGGG | -0.241
CGTTCTAA | 0.131
TCACCCAA | 0.114
GCCGTCGA | -0.11
GGCTCCCA | -0.34
ATGGAGGG | -0.334
ATTGCCGC | -0.201
CAACCACC | -0.238
AGTCCATG | -0.211
ACCTGAAC | -0.141
GCTGATCC | -0.214
AGAATAAC | -0.064
AAAATATC | 0.11
CGGTACAA | 0.0925

Sequence | PBM E-score
AGAAGCCT | -0.0527
CGGCCCGC | -0.223
CGGTAGAG | -0.202
AGGCTGGC | -0.251
AGGCCTTG | -0.277
AAACAACG | 0.0853
GAGGTCGA | -0.137
GTGGATAA | 0.0115
AACAACCT | -0.00718
AGGGTATC | -0.12
AACACGTC | 0.401
GCATCTCC | -0.341
GGTAGAAA | -0.058
CGCCAACC | -0.135
ACACTCTC | -0.0798
AGCGAAAC | 0.163
CCGCCACA | -0.233
CTTTTTCC | -0.161
AGATATAT | 0.193
ATTGATCA | 0.0974
AGTGACCC | -0.23
CCCAAACA | 0.0672
CGCGATTA | 0.138
AATATCGC | 0.133
CCACGCGC | -0.115

Sequence | PBM E-score
CCGTTGTA | -0.00978
GCGTGTAC | 0.227
GAGTTTCA | -0.198
GATTTCGC | 0.237
AGTACGTC | 0.435
AATACTTG | 0.167
CACGCAGC | 0.0173
ATAGATCG | -0.0452
CTCTAAAA | 0.0563
CAAGTTAG | -0.131
GCAGCTAC | 0.166
AGGTCAGC | 0.085
CGCCTAAA | -0.0757
TATATCAA | 0.192
CCCATGCG | -0.078
AAGATTTA | 0.173
CAATGTAA | 0.133
AATAGAGT | -0.109
CAAGTGAG | -0.121
TAAAACGA | 0.0152
ATGTACCC | -0.134
ACAACCAG | -0.0114
AGCAGGGA | -0.221
AAAACCGA | -0.0633
TCATGACA | 0.319

Sequence | PBM E-score
GAACGACC | -0.306
CCTGAAGA | -0.0498
ATTAATCA | 0.27
TCCCGTCA | 0.218
AATGTCTG | -0.0959
AATCGAGG | -0.231
CGCGATGA | 0.303
CTCCACAG | -0.31
CAGCAGAA | -0.12
GCGTCGAA | -0.0521
CCTGCGAA | -0.0899
CCCATCCC | -0.126
CTAACTAG | 0.0279
ATGGCAAA | -0.0313
AACATGAG | 0.0764
CTACACGA | 0.0875
AAACATCC | 0.0546
AGAAGAAC | -0.0233
CGCATGAA | 0.00284
AATGTATC | 0.183
AGGCACAT | 0.0946
CACACACA | 0.0588
ATGTAGCG | -0.145
AGGCAGTG | -0.0421
ACCTCTCG | -0.196

Sequence | PBM E-score
ATAGAGGA | -0.18
ACCGGCCA | -0.231
GAGATCCC | -0.171
AGGCCGCC | -0.182
GAGATAAA | 0.0445
ACCTCAGA | -0.211
AATGGATC | -0.147
TGTGGTAA | 0.117
AGTCACAT | 0.0771
CGTTAAGA | 0.17
CTCACAAC | 0.1
ATCCTCGA | 0.0269
TAATCGGA | 0.0288
AACCGGAC | -0.0878
CGCGAGAG | -0.147
ACGGAAAA | -0.036
ATGGTCAC | -0.0662
ATCCCAGA | -0.302
CCACAGAG | -0.0505
TCTATGAA | 0.12
CCAAAACA | -0.0759
GGCTGCAA | -0.261
ACCTGCCA | -0.13
TGCTTCAA | -0.137
ACATTCCA | 0.184

Sequence | PBM E-score
CAATTTCG | 0.00535
ACTAATCA | 0.137
CTGCCGAA | -0.302
AATGGAAG | 0.122
ACTGGCGA | -0.315
ACGACATC | 0.346
CACTACCC | -0.0578
ACACCGAG | -0.218
CCTGGAAG | -0.241
CAGGATCG | -0.151
CCCGGAAA | -0.155
ACTAGCGC | -0.0522
AAAGAGAG | -0.175
CATAAGGA | -0.0132
AGTCATCC | -0.0488
CAGCCCGG | -0.331
GCGCGTAC | 0.139
CTCCGACA | -0.116
ACTCTTGG | -0.179
CCCATCGG | -0.0979
AGGCTCTA | -0.044
ATCGCTCC | -0.256
